Laboratory results reported in US20230235090A1 (HARBOUR BIOMED US, published 2023).
Each block holds one binder with its values, some of them ahead of it.

Tests used:
[1] = molecular target: T1, human B7-H4 (human, UniProt Q7Z7D3 25-282); assay: FACS, SK-BR-3 cells [C]
T1 construct: whole, on cells; also called VTCN1; SK-BR-3 cell line highly expressing B7-H4
T1 sequence (looked up): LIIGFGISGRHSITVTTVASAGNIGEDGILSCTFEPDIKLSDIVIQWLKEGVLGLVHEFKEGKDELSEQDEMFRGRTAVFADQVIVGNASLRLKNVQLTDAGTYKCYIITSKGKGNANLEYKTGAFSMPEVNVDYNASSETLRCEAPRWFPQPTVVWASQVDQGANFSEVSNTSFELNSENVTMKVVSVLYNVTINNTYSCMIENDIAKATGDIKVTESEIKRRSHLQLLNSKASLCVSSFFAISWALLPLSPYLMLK

[2] = molecular target: T2, human 4-1BB (human, UniProt Q07011 24-255); assay: FACS, CHO-K1/h4-1BB cells [G]
T2 construct: whole, on cells; also called CD137; TNFRSF9

[3] = molecular target: T1, human B7-H4; assay: FACS, SK-BR-3 cells [H]

T2 sequence (Q07011 24-255): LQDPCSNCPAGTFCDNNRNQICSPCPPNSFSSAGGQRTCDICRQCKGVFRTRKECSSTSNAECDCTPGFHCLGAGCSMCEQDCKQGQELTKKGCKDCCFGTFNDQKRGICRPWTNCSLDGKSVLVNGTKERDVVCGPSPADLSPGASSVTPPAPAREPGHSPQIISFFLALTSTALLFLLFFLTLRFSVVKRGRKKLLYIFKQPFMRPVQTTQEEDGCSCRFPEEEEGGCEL

- EC50 [1]: 0.476 nM
- Maximum MFI [1]: 30600 MFI
B1: PR002801 (bispecific antibody, human IgG1, kappa, L234A L235A)
polypeptide chain 1: EIVMTQSPATLSVSPGERATLSCRASQSISSNLGWYQQKPGQAPRLLIYGASTRATGIPARFSGSGSGTEFTLTISSLQSEDFAVYYCQQYNSWPPLTFGGGTKVEIKRTVAAPSVFIFPPSDEQLKSGTASVVCLLNNFYPREAKVQWKVDNALQSGNSQESVTEQDSKDSTYSLSSTLTLSKADYEKHKVYACEVTHQGLSSPVTKSFNRGEC
polypeptide chain 2: QVQLVESGGGVVQPGRSLRLSCAASGFTFRSFGMHWVRQAPGKGLEWVAVISYDGSNEYYADSVKGRFIISRDNSKDTLYLQMNSLRAGDTAVYYCAKGGGLRWYFAYWGQGTLVTVSSASTKGPSVFPLAPSSKSTSGGTAALGCLVKDYFPEPVTVSWNSGALTSGVHTFPAVLQSSGLYSLSSVVTVPSSSLGTQTYICNVNHKPSNTKVDKKVEPKSCDKTHTCPPCPAPEAAGGPSVFLFPPKPKDTLMISRTPEVTCVVVDVSHEDPEVKFNWYVDGVEVHNAKTKPREEQYNSTYRVVSVLTVLHQDWLNGKEYKCKVSNKALGAPIEKTISKAKGQPREPQVYTLPPSREEMTKNQVSLTCLVKGFYPSDIAVEWESNGQPENNYKTTPPVLDSDGSFFLYSKLTVDKSRWQQGNVFSCSVMHEALHNHYTQKSLSLSPGEPKSSDKTHTPPPPPRTEVQLLESGGGLVQLGGSLRLSCAASGFTFSSYAMTWVRQAPEKGLEWVSSISGSGGNTYYADSVKGRFTISRDNSKNTLYLQMNSLRAEDTAVYYCAKERTGTTGDYYYNVDVWGQGTTVTVSS
notes: IgG-VH: PR001476 IgG + PR001781 VH, linker H1_15-RT, human IgG1 (L234A, L235A, P329G)

- EC50 [1]: 1.27 nM
- Maximum MFI [1]: 53400 MFI
B2: PR002805 (bispecific antibody, human IgG1, kappa, L234A L235A)
polypeptide chain 1: B1 polypeptide chain 1
polypeptide chain 2: QVQLVESGGGVVQPGRSLRLSCAASGFTFRSFGMHWVRQAPGKGLEWVAVISYDGSNEYYADSVKGRFIISRDNSKDTLYLQMNSLRAGDTAVYYCAKGGGLRWYFAYWGQGTLVTVSSASTKGPSVFPLAPSSKSTSGGTAALGCLVKDYFPEPVTVSWNSGALTSGVHTFPAVLQSSGLYSLSSVVTVPSSSLGTQTYICNVNHKPSNTKVDKKVEPKSCDKTHTCPPCPAPEAAGGPSVFLFPPKPKDTLMISRTPEVTCVVVDVSHEDPEVKFNWYVDGVEVHNAKTKPREEQYNSTYRVVSVLTVLHQDWLNGKEYKCKVSNKALGAPIEKTISKAKGQPREPQVYTLPPSREEMTKNQVSLTCLVKGFYPSDIAVEWESNGQPENNYKTTPPVLDSDGSFFLYSKLTVDKSRWQQGNVFSCSVMHEALHNHYTQKSLSLSPGEPKSSDKTHTPPPPPRTEVQLLESGGGLVQPGGSLRLSCAASGFIFSNFAMTWVRQPPEKGLKWVSSINGSGFNTYYTDSVKGRFTISRDNSRNTLYLQMNRLTAEDTAVYFCAKEGSSETDDHYYNVDVWGQGTTVTVSS
notes: IgG-VH: PR001476 IgG + PR001836 VH, linker H1_15-RT, human IgG1 (L234A, L235A, P329G)

- EC50 [2]: 0.838 nM
- Maximum MFI [2]: 137000 MFI
- EC50 [3]: 3.34 nM
- Maximum MFI [3]: 53200 MFI
B3: PR004162 (bispecific antibody, human IgG1, kappa)
light: EIVMTQSPASLSVSPGERATLSCRASQSVSSNLAWYQQKPGQAPRLLIYGASTRATGIPARVSGGGSGTEFTLTISSLQSEDFAVYYCQQYKNWPFTFGPGTKLEIKRTVAAPSVFIFPPSDEQLKSGTASVVCLLNNFYPREAKVQWKVDNALQSGNSQESVTEQDSKDSTYSLSSTLTLSKADYEKHKVYACEVTHQGLSSPVTKSFNRGEC
heavy: QVQLVQSGAEVKKPGSSMRVSCKASEDTFSSYAISWVRQAPGQGLEWMGGTAPIFGTTNYAQKFQGRVTITADKSTSTAYMELSSLRSEDTAVYYCARGGPYFDYWGQGTLVTVSSASTKGPSVFPLAPSSKSTSGGTAALGCLVKDYFPEPVTVSWNSGALTSGVHTFPAVLQSSGLYSLSSVVTVPSSSLGTQTYICNVNHKPSNTKVDKKV[letters of human IgG1 Fc with changes not shown]EPKSSDKTHTPPPPPRTEVQLVESGGGVVQPGGSLRLSCAASGFTFSNYAMTWVRQAPEKGLEWVSSISGSGVSTYYADSVKGRFTISRDNSKNTLYLQMTRLTAEDTAVYFCAKEGSSETDDHYYNVDVWGQGTTVTVSS
notes: IgG-VH tetravalent symmetric; PR002410 IgG x PR001760 VH; IgG1 (L234A, L235A)
